The source of these data is paper PMC12136788.

The labels stand for the following.
B1: chr17:35854954:35855410:-|three_prime_utr|ENSG00000270379|control|control|control (ssRNA)
RNA: GGGAGUUCUACAGUCCGACGAUCUCAAGACUUUCGACUUGCAAAGCUGAACCCCUUGUUUAUUGCAAAGUCCAUCACCAAAGUAGGCCAAAAGAAAACGCCUGCUUUCCCACCGUGCUGCUCGAAACCACGAAAACAUAGGCCCAACAGAGGAUUGAGCAUCA
B2: chr1:24840999:24841100:+|3pUTR|ENSG00000169504|msi1|FALSE|bound_elsewhere (ssRNA)
RNA: GGGAGUUCUACAGUCCGACGAUCGCUACUCCUUCCUGUAGAGCAGAAAUUGUAUUUUGCACGAACAUGCAGUUAUUGAAGAUUAGGAUCAAGGAUAGACAAGGUAUAGUAGUUAUCUUAAAAUAUACACUCCUAAGCAGUAUUCAACAGAGGAUUGAGCAUCA
B3: chr4:57031156:57031257:-|3pUTR|ENSG00000163453|msi1|FALSE|unique (ssRNA)
RNA: GGGAGUUCUACAGUCCGACGAUCAUAACUACAUUACCUGUUCUUGCCUAAUAAGUUUCUUUUAAUCCAAUCCACUAACACUUUAGUUAUAUUCACUGGUUUUACACAGAGAAAUACAAAAUAAAGAUCACACAUCAAGACUAUCAACAGAGGAUUGAGCAUCA
B4: chr4:159352722:159352837:+|CDS|ENSG00000109756|unk|FALSE|unique (ssRNA)
RNA: GGGAGUUCUACAGUCCGACGAUCACUGUGGAUAAUUUUUCAGAUUCUGGUCACAGUGAAAUUUCUUCACGAUCCAGUAUUGUUAGCAAUUCGUCUUUUGACUCAGUGCCAGUCUCACUGCACGAUGAGAGGCGCCAGAGGCAUCAACAGAGGAUUGAGCAUCA
B5: chr14:106373662:106373964:-|CDS|ENSG00000211956|control|control|control (ssRNA)
RNA: GGGAGUUCUACAGUCCGACGAUCCAAUCAUAGUGGAAGCACCAACUACAACCCGUCCCUCAAGAGUCGAGUCACCAUAUCAGUAGACACGUCCAAGAACCAGUUCUCCCUGAAGCUGAGCUCUGUGACCGCCGCGGACACGGCCAACAGAGGAUUGAGCAUCA
B6: chr8:41262032:41262394:-|3pUTR|ENSG00000104332|msi1|FALSE|unique (ssRNA)
RNA: GGGAGUUCUACAGUCCGACGAUCGGCCGUUCUGACCUGUUGCCAGCAGAUACACAGGACAUGGAUGAAAUUCCCGUUUCCUCUAGUUUCUUCCUGUAGUACUCCUCUUUUAGAUCCUAAGUCUCUUACAAAAGCUUUGAAUACCAACAGAGGAUUGAGCAUCA
B7: chr3:129431351:129431457:-|3pUTR|ENSG00000129071|unk|FALSE|unique (ssRNA)
RNA: GGGAGUUCUACAGUCCGACGAUCACUUCAAAAAAGCUUAAUUAAGUACAACCAACCACCUUUCCAGCCAUAGAGAUUUUAAUUAGCCCAACUAGAAGCCUAGUGUGUGUGCUUUCUUAAUGUGUGUGCCAAUGGUGGAUCUUUCAACAGAGGAUUGAGCAUCA
B8: chr4:69204429:69204649:-|CDS|ENSG00000213759|control|control|control (ssRNA)
RNA: GGGAGUUCUACAGUCCGACGAUCCCAUUGUUUUUUGAUCAACCUGAUAACAUUGCUCACAUGAAGGCCAAGGGAGCAGCUGUUAGAUUGGACUUCAACACAAUGUCGAGUACAGACCUGCUGAAUGCACUGAAGACAGUAAUUCAACAGAGGAUUGAGCAUCA
B9: ENSG00000136451:be:win_1001|CDS|ENSG00000136451|bound_else_gene|NA|bound_elsewhere_windowed (ssRNA)
RNA: GGGAGUUCUACAGUCCGACGAUCACCAAAAGCAGCAGCAGCAGCAGCAGCAGCAGCAGCAGCAGCAGCAACAACAACAACAACAACAUGUGACAAGCUGGCCAGGGAAGCAAGUAGAAACACUGAGACUGUGGGAAGAAGCUGCAACAGAGGAUUGAGCAUCA
B10: ENSG00000119522:stop:overlap|stop_codon|ENSG00000119522|stop_codon|NA|stop_codon (ssRNA)
RNA: GGGAGUUCUACAGUCCGACGAUCUGGGCGAGUACGCUGGCAGUGACAAACUGUACCAUCAGUGGCUCUCCACUGUCCGGAUUUAGAUGUUAAGGAAGGCAGCCUACCAGAGAGAUUUAAAAAAACACCACAGAAAACCAAGGACAACAGAGGAUUGAGCAUCA
B11: chr11:35230299:35231094:+|3pUTR|ENSG00000026508|msi1|FALSE|unique (ssRNA)
RNA: GGGAGUUCUACAGUCCGACGAUCGCCUGGGGAGUCCCUCAAAAGGUUAAAGGGAUUCCCAUCAUUGGAAUCUUAUCACCAGAUAGGCAAGUUUAUGACCAAACAAGAGAGUACUGGCUUUAUCCUCUAACCUCAUAUUUUCUCCAACAGAGGAUUGAGCAUCA
B12: chr5:72208839:72208948:+|3pUTR|ENSG00000131711|msi1_unk|total|mutant (ssRNA)
RNA: GGGAGUUCUACAGUCCGACGAUCCUUGCCUCUCUUCCGUCACCUGUCACAGGAGGUUCCUGCUCAGUAAUGAUAUUGUGAGUCCGGAUAAUAACUUUUUUUUUUUGUGCUUCAGAUUCCGAAGAAAAGAUCCUGUUUCCAUUUCAACAGAGGAUUGAGCAUCA
B13: chr16:70572763:70572864:+|3pUTR|ENSG00000189091|msi1|total|mutant (ssRNA)
RNA: GGGAGUUCUACAGUCCGACGAUCUCUGCAGCACCCAUCUCAGGUGGGUUCCAGAGGGCCUUCCGGGUAUAAUGAGAGCCUGUCCGGUGGAAGAGGCCCAGUUCCAGAAAUGUUCCAGCCCACCCCUGAGAAUUCCUCCUGUUUCAACAGAGGAUUGAGCAUCA
B14: ENSG00000170471:stop:overlap|stop_codon|ENSG00000170471|stop_codon|NA|stop_codon (ssRNA)
RNA: GGGAGUUCUACAGUCCGACGAUCUGGAGCCAGAGUUUUAUACUUCACUUUUCCAGGAGGUUGGACUCAAGAACUGCAGUUCUUAGACCACUGAAUUUCUAAGACUGUUGAACUCCAGUUUGGGAACUAUAACACAGCAGAACACAACAGAGGAUUGAGCAUCA

The other results are listed elsewhere or left out.

This experiment concerns the target MSI1 full-length (mouse, UniProt Q61474 1-362). The experiment can be described thus: nsRBNS (natural sequence RNA bind-n-seq); RBNS binding buffer (assumed for nsRBNS): 25 mM Tris pH 7.5, 150 mM KCl, 3 mM MgCl2, 0.01% Triton X-100, 500 ug/ml BSA, 20 U/ml SUPERase-In, 4 C; UNK is unkempt and MSI1 is Musashi-1; names of the RNAs are library labels; protein concentration not given here; high values mean tight binding.
Chain of UniProt Q61474 (Q61474 whole entry): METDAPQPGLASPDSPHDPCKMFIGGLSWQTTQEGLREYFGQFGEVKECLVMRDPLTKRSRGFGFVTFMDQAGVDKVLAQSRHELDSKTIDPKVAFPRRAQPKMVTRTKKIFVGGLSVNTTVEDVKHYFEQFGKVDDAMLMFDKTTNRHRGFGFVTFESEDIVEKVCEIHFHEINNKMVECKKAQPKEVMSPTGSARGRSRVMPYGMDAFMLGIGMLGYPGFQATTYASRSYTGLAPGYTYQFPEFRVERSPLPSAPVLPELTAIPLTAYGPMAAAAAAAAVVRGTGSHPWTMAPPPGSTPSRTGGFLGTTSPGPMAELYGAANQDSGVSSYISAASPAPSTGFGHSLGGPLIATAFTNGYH
As to B1, the binding signal worked out at 0.372 enrichment R.
The same measure for B2: 5.57 enrichment R; for B3: 4.29 enrichment R; for B4: 0.234 enrichment R.
The same measure for B5: 0.795 enrichment R; for B6: 1.86 enrichment R; for B7: 9.08 enrichment R.
In turn, B8 gave a binding signal of 0.341 enrichment R.
B9 came in with a binding signal of 0.597 enrichment R.
Molecule B10 gave a binding signal of 0.799 enrichment R.
Consider B11, for which the binding signal turned out to be 0.404 enrichment R.
The molecule B12 returned a binding signal of 0.349 enrichment R.
As for B13, the binding signal was found to be 0.294 enrichment R.
Molecule B14 had a binding signal of 0.335 enrichment R.
